PubChem BioAssay AID485294 (National Center for Advancing Translational Sciences (NCATS), 2010)
The whole screen tested about 370,000 compounds, of which about 150 (0.041%) were called active. The inconclusive results got no clear call from the source; some entries with a clear call stand among them for comparison. Calls follow the shape of the dose curve; as a rule, active = well fitted inhibition curve with a large enough effect; inconclusive = small, poorly fitted or top-dose-only effect; inactive = flat fitted curve, though single readings scatter. Potencies of inconclusive entries are left out as doubtful fits.
Also: nearly all actives have a fitted effect of over 25% in size.
Potency is read from the fitted curve at half-maximal effect; tags tell the direction and shape of the fitted curve.

These compounds were tested against Beta-lactamase (Escherichia coli (strain K12)) (UniProt P00811) (assay: qHTS Inhibitors of AmpC Beta-Lactamase (assay with detergent)). Conditions: AmpC hydrolysis of nitrocefin, absorbance 480 nm, 0.01% Triton; series mostly up to 114 µM.
Sequence of UniProt P00811 (P00811 whole entry, looked up): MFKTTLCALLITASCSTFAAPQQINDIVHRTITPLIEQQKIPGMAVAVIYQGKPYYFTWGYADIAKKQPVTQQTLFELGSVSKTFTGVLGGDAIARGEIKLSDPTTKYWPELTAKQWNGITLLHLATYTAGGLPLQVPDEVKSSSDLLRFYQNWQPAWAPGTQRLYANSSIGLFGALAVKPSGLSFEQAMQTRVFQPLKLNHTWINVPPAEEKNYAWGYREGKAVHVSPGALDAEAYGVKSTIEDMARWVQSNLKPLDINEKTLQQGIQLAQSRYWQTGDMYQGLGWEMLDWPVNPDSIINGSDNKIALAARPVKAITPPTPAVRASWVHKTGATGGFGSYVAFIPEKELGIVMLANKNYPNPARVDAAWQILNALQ
Outline: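 AmpC (5.3 nM in the dispensed reagent) in 20 mM phosphate pH 7.0 with 0.01% (detergent screen) or 0.0001% Triton X-100 was preincubated with compounds for 15 min at room temperature. Nitrocefin was then added from an 800 uM solution, and hydrolysis was followed at 480 nm.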
With `CCOc1ccc(-c2n[nH]c(C)c2-c2ccccn2)c(O)c1` the Potency was inconclusive [inhibitor, full curve, poor fit]. `O=C(CSc1nnc(CNC(=O)c2ccc(F)cc2)o1)Nc1ccc2c(c1)OCCO2` was tested, and the Potency was “inactive”. For `CCOC(=O)N1CCN(C(=O)CCCOc2ccccc2)CC1`, the Potency was inconclusive [inhibitor, full curve]. For `Cc1ccc(NC(=O)c2cnc(SCC(=O)N3CCOCC3)n(C)c2=O)cc1`, the Potency was “inactive”. With `Cc1ccc(NC(=O)c2c(C)nc3ccccn23)cc1C` the Potency was inconclusive [inhibitor, full curve, poor fit]. For `Cc1cc(C)n2cc(CSc3nnnn3-c3ccccc3C)nc2n1`, the Potency was inconclusive [inhibitor, full curve, poor fit]. For `O=C(OCC(=O)N1CCCC1)c1c2c(nc3ccccc13)CCCCC2`, the Potency was inconclusive [inhibitor, full curve]. For `CC(C)(C)OC(=O)NNC(=O)c1ccc(Cl)cc1`, the Potency was inconclusive [inhibitor, full curve]. For `CCC1CN(C(=O)N2CCC(C(=O)NCCN(C)C)CC2)c2ccccc2O1` (stereo not drawn), the Potency was “inactive”. With `CC(C)c1ccc(/C=C/C(=O)NC2=NCCS2)cc1` the Potency was inconclusive [inhibitor, single point]. `CCN(CC(=O)Nc1ccc(NC(C)=O)cc1)C(=O)/C=C/c1ccc2c(c1)OCO2` was tested, and the Potency was inconclusive [inhibitor, full curve, poor fit]. For `CCOc1ccccc1-n1c(O)c(C=Nc2c(C)n(C)n(-c3ccccc3)c2=O)c(=O)[nH]c1=O`, the Potency was inconclusive [inhibitor, full curve, poor fit]. With `CSc1nnc(CCNS(=O)(=O)c2ccccc2Br)n1C` the Potency was inconclusive [inhibitor, full curve, poor fit]. In the case of `COc1ccc(N2C(=O)N3[C@H](c4ccc(Cl)cc4)[C@@H]4C(=O)N(C5CCCCC5)C(=O)[C@@H]4[C@]3(C)C2=O)cc1`, the Potency is reported as inconclusive [inhibitor, full curve, poor fit]. In the case of `COC(=O)CC1c2cc(OC)c(OC)cc2CCN1C(=O)Nc1ccc(C)cc1Cl` (stereo not drawn), the Potency is reported as “inactive”. In the case of `N=c1c2c(ncn1CCN1CCOCC1)Oc1ccc3ccccc3c1C2c1ccccc1` (stereo not drawn), the Potency is reported as inconclusive [inhibitor, full curve, poor fit]. With `COc1ccc(-n2c(COc3ccc(Cl)cc3)nnc2SCc2ccc(C#N)cc2)cc1` the Potency was inconclusive [inhibitor, full curve]. `O=C(NNc1ccc(Cl)cc1)c1c(F)cccc1Cl` was tested, and the Potency was “inactive”. For `CN(C)c1ccc(-c2ccncc2)cc1`, the Potency was inconclusive [inhibitor, full curve, poor fit]. With `COCCN(C(=O)COC(=O)CNC(=O)c1cccs1)c1c(N)n(Cc2ccccc2)c(=O)[nH]c1=O` the Potency was inconclusive [inhibitor, single point]. With `Cc1ccc(S(=O)(=O)N2CCN(C(=O)c3cc4c(s3)CCC(C)C4)CC2)cc1` (stereo not drawn) the Potency was inconclusive [inhibitor, partial curve, poor fit]. In the case of `CCOc1ccc(C(=O)N2CCN(CCc3ccccc3)CC2)cc1OCC`, the Potency is reported as inconclusive [inhibitor, partial curve, poor fit]. In the case of `COc1ccccc1Oc1cc(-n2nc(C)cc2C)ncn1`, the Potency is reported as inconclusive [inhibitor, full curve]. In the case of `Cc1csc(NC(=O)CSc2nccn2C)n1`, the Potency is reported as inconclusive [inhibitor, full curve]. `S=c1[nH]nc(CSCc2ccccc2Cl)n1C1CCCCC1` was tested, and the Potency was “inactive”. With `COc1ccc(CNC(=O)c2cccc(C)c2[N+](=O)[O-])cc1` the Potency was inconclusive [inhibitor, single point]. In the case of `Cc1cc(C)nc(Nc2ncc(O)n2-c2ccc(Br)cc2)n1`, the Potency is reported as “inactive”. In the case of `Cc1ccc(S(=O)c2snnc2C)cc1` (stereo not drawn), the Potency is reported as inconclusive [inhibitor, partial curve, poor fit]. `CCCc1cc(=O)[nH]c(SCc2nc3ccccc3o2)n1` was tested, and the Potency was inconclusive [inhibitor, full curve, poor fit]. In the case of `COc1ccc(/C=C/c2nnc(NC(=O)COc3cccc(C)c3)s2)cc1`, the Potency is reported as inconclusive [inhibitor, full curve, poor fit]. `Cc1c(NC(=O)CCC(=O)N2CCCCC2)c(=O)n(-c2ccccc2)n1C` was tested, and the Potency was inconclusive [inhibitor, partial curve, poor fit]. With `O=C(NCCOC12CC3CC(CC(C3)C1)C2)c1cccc(Br)c1` the Potency was inconclusive [inhibitor, full curve, poor fit]. `CCN1CCCC1CNC(=O)CN(C)S(=O)(=O)c1ccc(Cl)cc1` (stereo not drawn) was tested, and the Potency was inconclusive [inhibitor, full curve, poor fit]. For `O=C1/C(=C/c2cccc(F)c2)Oc2cc(O)ccc21`, the Potency was “inactive”. For `N#CCCN1CCN(C(=S)c2ccc(-c3cc(Cl)ccc3Cl)o2)CC1`, the Potency was inconclusive [inhibitor, single point]. With `CC(C)(C)C(=O)Nc1ccnc(-c2cccnc2)n1` the Potency was inconclusive [inhibitor, partial curve, poor fit]. In the case of `O=C(CCN1CCOCC1)NC1CCCN(Cc2ccccc2F)C1` (stereo not drawn), the Potency is reported as “inactive”. For `COc1nc(-c2ccccc2)ncc1S(=O)(=O)c1ccccc1`, the Potency was “inactive”. With `O=[N+]([O-])c1cc(O)c2ncccc2c1` the Potency was “inactive”. In the case of `O=C(Nc1cccc(Cl)c1Cl)c1ccc2c(c1)N(Cc1cccc(Cl)c1)C(=O)c1ccccc1S2(=O)=O`, the Potency is reported as “inactive”. `COc1ccc(C2Nc3ccccc3C(=O)N2Cc2ccco2)cc1CN1C(=O)c2ccccc2C1=O` (stereo not drawn) was tested, and the Potency was inconclusive [inhibitor, partial curve]. `CCCCn1c(NS(=O)(=O)c2ccc(C)cc2)c(S(=O)(=O)c2ccccc2)c2nc3ccccc3nc21` was tested, and the Potency was “inactive”. In the case of `COCCOCCn1c(CCCO)nc2ccccc21`, the Potency is reported as inconclusive [inhibitor, full curve, poor fit]. For `Fc1ccc(CSc2nc3ccccc3[nH]2)c2ccccc12`, the Potency was inconclusive [inhibitor, full curve, poor fit]. In the case of `CN(C(=O)c1ccccc1Cl)c1ccccc1C(=O)NCCc1ccccc1`, the Potency is reported as inconclusive [inhibitor, full curve, poor fit]. For `CC(=O)Nc1cc2c(cc1C(C)=O)OCCO2`, the Potency was inconclusive [inhibitor, single point]. `COc1cc(NS(=O)(=O)c2ccc3c(c2)n(C)c(=O)n3C)cc(OC)c1` was tested, and the Potency was “inactive”. For `Cc1nonc1NC(=O)CSc1nc(C23CC4CC(CC(C4)C2)C3)nc2ccccc12`, the Potency was inconclusive [inhibitor, full curve, poor fit]. For `O=C(NCCCN1CCOCC1)c1coc2ccccc2c1=O`, the Potency was inconclusive [inhibitor, partial curve, poor fit]. For `O=C1c2ccccc2C(O)N1CCN1CCOCC1` (stereo not drawn), the Potency was inconclusive [inhibitor, full curve]. `CC(OC(=O)[C@H](C)NC(=O)c1ccccc1Cl)C(=O)NCc1ccc2c(c1)OCO2` (stereo partly drawn) was tested, and the Potency was “inactive”. In the case of `CCn1c(CN2CCCCC2)nc2cc(NC(=O)c3cc(OC)c(OC)c(OC)c3)ccc21`, the Potency is reported as “inactive”. For `CC(=O)Nc1nc(C)c(-c2csc(Nc3cccc(C(C)=O)c3)n2)s1`, the Potency was “inactive”. For `Cc1ccc(C)c(NC(=O)c2ccc(CN3CC(=O)N4CCCCC4C3=O)cc2)c1` (stereo not drawn), the Potency was “inactive”. For `Cc1ccc([N+](=O)[O-])c2c1C(N1CCCC1)C(C)(C)O2` (stereo not drawn), the Potency was inconclusive [inhibitor, full curve]. With `Cc1ccccc1NC(=O)c1ccc2c(c1)C(=O)N(CCC(C)C)C2=O` the Potency was inconclusive [inhibitor, partial curve, poor fit]. For `CCOC(=O)Cn1c(=O)oc2cc(S(=O)(=O)NCC3CCCO3)ccc21` (stereo not drawn), the Potency was inconclusive [inhibitor, partial curve, poor fit]. In the case of `CCOC(=O)Cc1csc(NC(=O)c2cccs2)n1`, the Potency is reported as inconclusive [inhibitor, partial curve, poor fit]. For `COC(=O)c1ccccc1NC(=O)C1CC(=O)N(c2ccc(F)cc2)C1` (stereo not drawn), the Potency was inconclusive [inhibitor, full curve, poor fit]. For `O=C(NCC1COc2ccccc2O1)c1ccc(NC(=O)c2ccco2)cc1` (stereo not drawn), the Potency was “inactive”. In the case of `Cn1c(=O)c2c(nc(Sc3nc4ccccc4n3CC(=O)N3CCCCC3)n2C)n(C)c1=O`, the Potency is reported as “inactive”. `CC1C(=O)CC(c2ccccc2)NC1c1ccccc1` (stereo not drawn) was tested, and the Potency was “inactive”. With `COc1ccccc1CNC(=O)CSCc1cnn(-c2ccccc2)c1-n1cccc1` the Potency was inconclusive [inhibitor, full curve, poor fit]. With `Oc1ccc(/C=N/n2cc(-c3ccccc3)[nH]c2=S)cc1` the Potency was inconclusive [inhibitor, full curve, poor fit]. With `COc1ccc(/C=N/n2cnc3c([nH]c4ccccc43)c2=O)cc1COc1ccccn1` the Potency was inconclusive [inhibitor, partial curve, poor fit]. With `CCOc1cc(/C=N/NC(=O)c2ccncc2)ccc1OC(=O)c1ccc([N+](=O)[O-])cc1` the Potency was inconclusive [inhibitor, partial curve, poor fit]. For `CCC(C)NC(=O)C1=CCN(S(=O)(=O)c2ccc(C)cc2)CC1` (stereo not drawn), the Potency was “inactive”. With `O=C(COc1ccc(Cl)cc1Cl)NCCCNC(=O)c1cnccn1` the Potency was inconclusive [inhibitor, partial curve].
